We go through 4 molecules from patent US20250282868A1 (ITEOS BELGIUM, published 2025).

Experiment [1] has as its target T1, human TREM2 (human, UniProt Q9NZC2 19-230).
T1 sequence: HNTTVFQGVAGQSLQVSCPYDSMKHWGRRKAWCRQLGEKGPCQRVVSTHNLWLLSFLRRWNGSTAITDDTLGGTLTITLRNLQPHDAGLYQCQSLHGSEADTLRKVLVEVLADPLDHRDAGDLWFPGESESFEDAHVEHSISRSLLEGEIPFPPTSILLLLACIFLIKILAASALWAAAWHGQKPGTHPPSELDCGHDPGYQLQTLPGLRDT
The experiment can be described thus: cell-based or functional assay.

The target of experiment [2] is T1, human TREM2. The experiment can be described thus: flow cytometry, competition with LDL-Alexafluor-488 on CHO cells overexpressing human TREM2/DAP12; only 1 value generated. The protocol:
Exemplary anti-TREM2 antibodies were tested in order to characterize their ability to enter in competition with TREM2 ligand, LDL, on CHO overexpressing human TREM2/DAP12. Antibodies (dose response curves from 66.65 nM to 0.07 nM) were incubated for 30 min with cells in a soluble fashion, followed by an incubation with LDL coupled with Alexafluor-488 (at 1 μg/mL final) for 30 min. Finally, after 2 washes, cells were acquired on flow cytometer. The median MFI of Alexafluor-488 was used to plot the graphs. Benchmark antibody MOR044746 was used as positive control.
For orientation: Flow cytometry measures light scatter and fluorescence of single cells or particles in a stream.

In experiment [3] the target is T1, human TREM2. The experiment can be described thus: cell-based or functional assay. This is another data set of the same source.
Experiment [4] concerns the target T1, human TREM2. The experiment can be described thus: flow cytometry, M2a-like macrophages. The method, then:
(§1) M2a-like macrophages were produced in vitro from monocytes of healthy donors. Briefly, after PBMCs isolation from peripheral blood using Lymphoprep™ gradient, CD14+ cells were purified and seeded in presence of MCSF 50 ng/ml for 6 days. Macrophages were then cultured with IL-13 and IL-4 at a concentration of 20 ng/ml for two additional days and then used for a cell-based binding assay.
(§2) M2a-like macrophages were incubated with anti-TREM2 antibodies (dose-response curve with 11 concentrations from 10 μg/ml to 0.0001 μg/ml) for 30 min at 4° C. After washing, bound antibodies were detected with a secondary anti-human IgG Fc PE-labelled for 30 min at 4° C. Fluorescence intensity was measured by flow cytometry. Equilibrium dissociation constant (kD) was then calculated for each antibody using median MFI normalized over isotype control.

Experiment [5] deals with T1, human TREM2. The experiment can be described thus: flow cytometry, THP-1 WT cells, 10 ug/ml. The protocol: (§3) In order to test specificity of selected antibodies to TREM2, binding was tested by flow cytometry on THP-1 TREM2 KO (clone, produced using CRISPR technology in house) and on THP-1 WT. Cells were incubated with selected anti-TREM2 antibodies (final concentration of 10 μg/ml) for 30 min at 4° C. After washing, bound antibodies were detected with a secondary anti-human IgG Fc PE-labelled for 30 min at 4° C. Fluorescence intensity was measured by flow cytometry.

Experiment [6] has as its target T2, cynomolgus TREM2 (cynomolgus, UniProt A0A2K5UY34 49-260).
T2 construct: also called cynoTREM2; cTREM2
T2 sequence: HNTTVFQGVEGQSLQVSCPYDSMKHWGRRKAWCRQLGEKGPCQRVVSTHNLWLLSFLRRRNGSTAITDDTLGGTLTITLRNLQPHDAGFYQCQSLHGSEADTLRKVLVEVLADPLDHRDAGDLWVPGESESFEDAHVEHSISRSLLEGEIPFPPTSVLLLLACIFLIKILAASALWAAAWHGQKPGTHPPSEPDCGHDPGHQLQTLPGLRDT
The experiment can be described thus: MFI on CHO cells over-expressing cynoTREM2-DAP12. The protocol: (§4) Cross-reactivity of anti-TREM2 antibodies to cynomolgus TREM2 (cynoTREM2) was assessed using CHO over-expressing cynoTREM2-DAP12 (Table 22). Benchmark antibodies, AB52 and PN-37012, were examined for comparison.

Experiment [7] has as its target T1, human TREM2. The experiment can be described thus: flow cytometry, M2a-like macrophages, dose-response. The protocol: as §1, §2
The target of experiment [8] is T3, mouse TREM2 (mouse, UniProt Q99NH8 19-227).
T3 construct: whole, on cells
T3 sequence (looked up): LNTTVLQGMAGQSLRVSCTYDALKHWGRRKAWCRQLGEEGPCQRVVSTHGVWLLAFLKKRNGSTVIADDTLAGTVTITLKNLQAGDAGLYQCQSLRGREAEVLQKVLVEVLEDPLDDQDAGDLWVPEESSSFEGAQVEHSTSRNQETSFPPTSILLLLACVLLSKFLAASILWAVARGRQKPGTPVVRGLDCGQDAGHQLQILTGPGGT
The experiment can be described thus: MFI on CT26 cells over-expressing mouse TREM2 and DAP12. The protocol: (§5) Cross-reactivity to mouse TREM2 was assessed using CT26 cells over-expressing mouse TREM2 and DAP12 (Table 23). Eight anti-TREM2 antibodies and both benchmark antibodies were considered cross-reactive to mouse TREM2 (MFI higher than isotype control and fold change of CT26-TREM2 over the CT26 Empty Vector higher than 5). The remaining anti-TREM2 antibodies were considered as being low to not cross-reactive (fold change less than 5). EOS006171 was not tested due to clear non-cross-reactivity preliminary data by octet (data not shown).

Experiment [9] has as its target T1, human TREM2. The experiment can be described thus: flow cytometry, THP-1 WT vs THP-1 TREM2 KO cells, 10 ug/ml. The method, then: as §3
Experiment [10] has as its target T2, cynomolgus TREM2. The experiment can be described thus: MFI on CHO cells over-expressing cynoTREM2-DAP12 vs CHO empty vector. The protocol: as §4
The target of experiment [11] is T3, mouse TREM2. The experiment can be described thus: MFI on CT26 cells over-expressing mouse TREM2 and DAP12 vs CT26 empty vector. The protocol:
as §5

Experiment [12] deals with T3, mouse TREM2. The experiment can be described thus: MFI on CT26 cells over-expressing mouse TREM2 and DAP12; column 'Considered cross-reactive'. The method, then:
as §5

B1: EOS004284 (antibody, human IgG1, kappa)
heavy: EVQLVESGGGLVQPGRSLRLSCTASGFTFDDYTMSWFRQAPGKGLEWVGFIGSKAYSATTEYTASVKGRFTISRDGSKSIAYLQMNSLKTEDTAVYYCARGKRYSYTYWTPAFDVWGQGTLVTVSS[human IgG1 constant region omitted here]
light: DIQMTQSPSSLSASVGDRVTITCQASQDITNYLNWYQQKPGKAPKLLIYDASNLETGVPSRFSGSGSGTDFTFTISSLQPEDIATYYCQEYDSYITFGGGTKVEIKRTVAAPSVFIFPPSDEQLKSGTASVVCLLNNFYPREAKVQWKVDNALQSGNSQESVTEQDSKDSTYSLSSTLTLSKADYEKHKVYACEVTHQGLSSPVTKSFNRGEC
One may read the IC50 as the concentration that inhibits the measured activity by half. Low readings indicate higher potency, high ones lower potency. Consider B1, for which the “Fold over isotype control at 66 nM” value in the experiment with human TREM2 [1] was 0.928 fold. The molecule also had a half-inhibitory concentration (IC50) with human TREM2 [2] of 0.203 nM.

B2: EOS006215 (antibody, human IgG1, kappa)
heavy: EVQLVESGGGLVQPGRSLRLSCTASGFTFDDYTMSWFRQAPGKGLEWVGFIGSKAYSATTEYTASVKGRFTISRDGSKSIAYLQMNSLKTEDTAVYYCARGKRYSYTYWTPAFDVWGQGTLVTVSS[human IgG1 constant region with changes omitted here]
light: DIQMTQSPSSLSASVGDRVTITCQASQDITNYLNWYQQKPGKAPKLLIYDASNLETGVPSRFSGSGSGTDFTFTISSLQPEDIATYYCQEYDSYITFGGGTKVEIKRTVAAPSVFIFPPSDEQLKSGTASVVCLLNNFYPREAKVQWKVDNALQSGNSQESVTEQDSKDSTYSLSSTLTLSKADYEKHKVYACEVTHQGLSSPVTKSFNRGEC
Consider B2, for which the “IC50, efferocytosis of pHrodo-labelled apoptotic Skov-3 cells by M2a-like macrophages (Incucyte)” value with human TREM2 [3] worked out at 0.36 nM.

B3: EOS006179 (antibody, V domains shown)
VH: [about 100 residues omitted here]LRGGYEVGPTFDPWGQGTLVTVSS
VL: DIVMTQSPDSLAVSLGERATINCKSSQSVLYSSNNKNYLAWYQQKPGQPPKLLIYWASTRESGVPDRFSGSGSGTDFTLTISSLQAEDVAVYYCQQHYIWPITFGGGTKVEIK
The term Kd denotes the free concentration of one partner at which half of the binding sites on the other are occupied at equilibrium, for simple one-to-one binding. B3: in the experiment with human TREM2 [1], the “Fold over isotype control at 66 nM” value is 2.52 fold and the “pSYK/TotSYK EC50 (nM)” value turned out to be 14.5 nM. Moreover, the Fold over isotype in the experiment with human TREM2 [4] stood at 11.4 fold. Further, the “Fold over isotype control THP1 WT” value with human TREM2 [5] amounted to 3.2 fold. For the same molecule, the “Binding to CHO-cTREM2 MFI” value with cynomolgus TREM2 [6] is 21200 MFI. In addition, binding in the experiment with human TREM2 [7] was put at a Kd of 3.13 nM. In the experiment with mouse TREM2 [8], the “Binding to CT26-TREM2 MFI” value is 8700 MFI. Besides, the “MFI Fold change (THP-1 WT over THP-1 TREM2 KO)” value in the experiment with human TREM2 [9] is 3.5 fold. Besides, in the experiment with cynomolgus TREM2 [10], the “MFI Fold change (CHO-cTREM2 over CHO-EV)” value worked out at 275 fold. For the same molecule, the “MFI Fold change (CT26-TREM2 over CT26-EV)” value in the experiment with mouse TREM2 [11] was 7.3 fold.

B4: EOS006169 (antibody, V domains shown)
VH: [about 100 residues omitted here]DRGGYEVGPTFDPWGQGTLVTVSS
VL: DIVMTQSPDSLAVSLGERATINCKSSQSVLYSSNNKNYLAWYQQKPGQPPKLLIYWASTRESGVPDRFSGSGSGTDFTLTISSLQAEDVAVYYCQQHYLTPITFGGGTKVEIK
Turning to B4, in the experiment with human TREM2 [1], the “Fold over isotype control at 66 nM” value turned out to be 2.43 fold and the “pSYK/TotSYK EC50 (nM)” value amounted to 4270 nM. In the experiment with human TREM2 [4], this molecule gave a Fold over isotype of 1.9 fold. Also, in the experiment with human TREM2 [5], the “Fold over isotype control THP1 WT” value came to 2.2 fold. In addition, the “Binding to CHO-cTREM2 MFI” value in the experiment with cynomolgus TREM2 [6] worked out at 5140 MFI. In the experiment with human TREM2 [7], this molecule showed a Kd of 3.45 nM. Also, the “Binding to CT26-TREM2 MFI” value in the experiment with mouse TREM2 [8] was found to be 649 MFI. For the same molecule, in the experiment with human TREM2 [9], the “MFI Fold change (THP-1 WT over THP-1 TREM2 KO)” value was determined as 1.3 fold. Further, in the experiment with cynomolgus TREM2 [10], the “MFI Fold change (CHO-cTREM2 over CHO-EV)” value worked out at 125 fold. Also, the “MFI Fold change (CT26-TREM2 over CT26-EV)” value in the experiment with mouse TREM2 [11] stood at 1.8 fold. Moreover, the binding result with mouse TREM2 [12] is recorded as “no binding (tested: fold change less than 5)”.
